# Screen size: about 110,000 compounds; about 230 (0.21%) showed an effect of 50% or more. The list shows a part of the results.
# Target: DPAP1 (Plasmodium falciparum, UniProt Q8IIJ9)
# Experiment: primary screen, percent inhibition; read by cleavage of a fluorogenic dipeptide substrate; higher = more effect of the substance
# Set-up: species or system P. falciparum D10 trophozoite lysates; single well
# 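Note: 30 min substrate incubation versus DMSO and 10 µM JCP410 controls.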
# DPAP1, sequence (Q8IIJ9 whole entry, looked up): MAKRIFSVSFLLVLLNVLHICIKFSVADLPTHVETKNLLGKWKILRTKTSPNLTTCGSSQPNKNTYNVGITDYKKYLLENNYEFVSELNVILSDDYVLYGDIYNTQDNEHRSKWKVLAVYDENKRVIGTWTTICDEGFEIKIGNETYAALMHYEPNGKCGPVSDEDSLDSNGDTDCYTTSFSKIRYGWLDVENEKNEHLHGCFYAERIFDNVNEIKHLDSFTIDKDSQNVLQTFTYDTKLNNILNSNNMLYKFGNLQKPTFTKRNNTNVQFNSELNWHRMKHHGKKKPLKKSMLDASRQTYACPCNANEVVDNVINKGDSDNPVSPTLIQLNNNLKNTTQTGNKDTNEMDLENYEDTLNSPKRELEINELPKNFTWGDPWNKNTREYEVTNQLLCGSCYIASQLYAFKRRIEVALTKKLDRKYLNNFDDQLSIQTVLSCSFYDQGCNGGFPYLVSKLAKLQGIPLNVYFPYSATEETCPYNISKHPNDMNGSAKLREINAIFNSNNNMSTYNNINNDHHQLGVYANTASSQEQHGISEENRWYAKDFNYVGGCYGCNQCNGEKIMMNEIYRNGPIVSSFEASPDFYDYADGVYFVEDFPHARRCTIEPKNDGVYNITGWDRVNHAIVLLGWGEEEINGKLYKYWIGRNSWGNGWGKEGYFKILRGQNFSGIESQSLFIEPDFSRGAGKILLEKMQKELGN
row,Compound,% Inhibition @ 10 uM [%]
1,Cc1nc2c(c(C)c1CCC(=O)NCCN1CCC(Cc3ccccc3)CC1)c(=O)n(C)c(=O)n2C,-3.1
2,Cc1ccc(C(=O)Nc2ccc(Cl)c(Cl)c2)cc1,-3.04
3,O=C1c2ccccc2-c2c1cccc2C(=O)N1CCOCC1,0.147
4,COc1cc(OC)c(CNC2CCCCCC2)cc1Br,7
5,C=CCOc1ccc(C(=O)C2=C(O)C(=O)N(CCN3CCOCC3)C2c2ccc(OC)cc2)c(C)c1 (stereo not shown),4.54
6,CCOC(=O)c1nnc2ccnn2c1N,5.32
7,CCSc1ncc(Cl)c(C(=O)Nc2nnc(C)s2)n1,-1.11
8,COc1cc(-c2nc3n(n2)C(c2ccc4c(c2)OCO4)C2=C(O)CCCC2=N3)cc(OC)c1OC (stereo not shown),3.59
9,N#Cc1c(C#N)c(-c2ccccc2)n(-c2ccccc2)c1N,1.13
10,COc1ccc(CCN2C(=O)NC(NC(=O)c3ccc(F)cc3)(C(F)(F)F)C2=O)cc1OC (stereo not shown),0.413
11,CCC(C)NC(=O)C1CCN(C(=O)c2cnn(-c3ccccc3)c2-n2cccc2)CC1 (stereo not shown),3.4
12,CC12CN3CC(c4ccccc4)(CN(C1)C3c1ccc(OCc3ccccc3)cc1)C2=O (stereo not shown),0.627
13,CC1CCN(c2c(-c3ccc(C(C)C)cc3)c(=O)c2=O)CC1,0.274
14,COc1ccc(NC(=O)c2cccc(C(F)(F)F)c2)cc1,-4.66
15,COc1ccc(NC(=O)C2C3C=CC(CC3)C2C(=O)O)cc1 (stereo not shown),-1.88
16,COc1ccc(N(CC(=O)Nc2ccc(Cl)cc2)S(=O)(=O)c2ccccc2)cc1OC,0.528
17,CCOc1cc(C2C(C#N)=C(N)Oc3[nH]nc(CC)c32)ccc1OCCN1CCOCC1 (stereo not shown),3.46
18,O=C(NC1CCN(Cc2ccccc2)CC1)[C@@H](c1ccccc1)N1Cc2ccccc2C1=O,-0.465
19,Cc1ccc2c(c1)C(SCC(=O)NC1CCCCC1)CC1(CCCC1)O2 (stereo not shown),-0.971
20,CCc1nnc(NC(=O)C2CCN(c3ncnc4c3nc3n4CCCCC3)CC2)s1,-0.238
21,O=C(Nc1cccnc1)c1ccc(C(F)(F)F)cc1,1.96
22,O=C(CNC(=S)N(Cc1ccc(F)cc1)C1CCCCC1)NCC1CCCO1 (stereo not shown),-0.406
23,CCCCNC(=O)c1ccc(CS(=O)(=O)c2ccc(Br)cc2)o1,2.14
24,Cc1cc2ccccc2c(=O)n1CC(=O)NCC(=O)Nc1nc2ccccc2s1,3.61
25,O=C1C2C3C=CC(C3)C2C(=O)N1c1cccc(Cl)c1Cl (stereo not shown),-8.42

row,Compound,% Inhibition @ 10 uM [%]
1,CSc1ncc(C(=O)Nc2nccs2)c(C)n1,-2.13
2,CCOC(=O)C1=C(CC)OC(N)=C(C#N)C1c1ccc(O)cc1 (stereo not shown),-3.35
3,Clc1ccccc1N1CCN(Cc2cccs2)CC1,-3.77
4,COc1ccc(C(=O)ON2C(=O)c3cccc4c(Cl)ccc(c34)C2=O)cc1,5.65
5,COCCCn1c(=N)c(C(=O)NCc2cccnc2)cc2c(=O)n3ccccc3nc21,3.6
6,CC(NC(=O)c1ccc(CN2CCc3ccccc3C2)cc1)c1ccccc1 (stereo not shown),-2.13
7,O=C(NCCC1=CCCCC1)c1ccc(CS(=O)c2cccc(Cl)c2)o1 (stereo not shown),6.65
8,Cc1cc(C(F)(F)F)nc(SCc2ccc(C(=O)O)o2)n1,-13.6
9,CCOC(=O)c1c(S(=O)(=O)NCCOC)c(C)n(C)c1C,-6.07
10,CC(=O)NC12CC3(C)CC(C)(CC(O)(C3)C1)C2,-0.833
11,COc1ccc(C2C(C#N)=C(N)Oc3nc(O)nc(O)c32)c(OC)c1 (stereo not shown),3.25
12,Cc1nnc2c3ccccc3nc(NC3CCCCC3)n12,-1.95
13,CCCCOC(=O)c1c(N)n(-c2ccc(C(=O)OCC)cc2)c2nc3ccccc3nc12,5.17
14,COc1cc(/C=C2/C(=O)NC(=O)N(C)C2=O)cc(Br)c1O,2.18
15,CCCCOC(=O)c1ccc(N2CCCCC2)cc1,-3.77
16,Cc1ccc2oc(C(=O)NC3CCS(=O)(=O)C3)cc(=O)c2c1 (stereo not shown),0.248
17,CC(C)(C)NC(=O)C(C)(C)Oc1ccc(Cl)cc1,0.793
18,O=C1/C(=C\c2ccc3c(c2)OCO3)CCC/C1=C\c1ccc2c(c1)OCO2,-1.06
19,C=C(C)Cn1c(N2CCCCC2)nc2c1c(=O)n(C)c(=O)n2C,0.635
20,Cc1ccc(C2C(C#N)C(=O)NC(=O)C2[n+]2ccccc2)cc1 (stereo not shown),-1.07
21,O=C1S/C(=C\c2ccc(Br)o2)C(=O)N1CCOc1ccc(F)cc1,0.0999
22,CCN(CC)CCN(C)Cc1coc2ccc(C)cc2c1=O,3.48
23,CCOC(=O)c1oc2c(CN3CCCC(C)C3)c(O)ccc2c(=O)c1-c1ccc(OC)cc1 (stereo not shown),-2.91
24,COc1ccc(Br)cc1C1CC(=O)N2CN(C3CCCCC3)CSC2=C1C#N (stereo not shown),60.2
25,CCOc1cc(CNc2ncc(-c3ccc(Br)cc3)n2C)ccc1O,-2.91

row,Compound,% Inhibition @ 10 uM [%]
1,COc1cc(/C=C2\NC(=O)N(Cc3ccc(Cl)cc3)C2=O)ccc1OCc1cccc(C(=O)O)c1,5.18
2,O=C(NC1CCCC1)C1CCCN(C(=O)c2cnn(-c3ccccc3)c2-n2cccc2)C1 (stereo not shown),1.38
3,CN1CCN(C(=O)C(Cc2ccccc2)N2Cc3ccccc3C2=O)CC1 (stereo not shown),-7.33
4,CCN1CCN(C2CCN(C(C)=O)CC2)CC1,-3.57
5,Cc1nc2ccccc2nc1SC(C(=O)O)c1ccccc1 (stereo not shown),7.49
6,CCNC(=O)CC1S/C(=N\c2cccc3ccccc23)N(C)C1=O (stereo not shown),0.35
7,Cc1cccc(-c2nc3n(n2)C(c2ccccc2)C2=C(O)CCCC2=N3)c1 (stereo not shown),0.275
8,Cc1ccc(Cl)cc1-n1nnc(-c2ccccc2)n1,1.67
9,O=C1NC(=O)C2(C(=O)N1)C(c1ccc(OC(F)F)cc1)NC(=O)NC2c1ccc(OC(F)F)cc1 (stereo not shown),-5.33
10,CCOC(=O)N1CCN(CC(O)COCc2ccc(Cl)cc2)CC1 (stereo not shown),-5.28
11,N#Cc1cn(CC(=O)Nc2ccc(Br)cc2)c2ccccc12,-5.34
12,Cc1ccccc1CN1CCN(c2cccc(Cl)c2)CC1,-5.91
13,Cc1cccc(CCNC(=O)CCc2c(C)nc3cc(-c4ccccc4)nn3c2C)c1,1.26
14,CC(C)Cc1ccc(C(=O)NCCOc2ccccc2)o1,1.76
15,CC(C)OCCCNC(=O)C(C)n1sc2ccccc2c1=O (stereo not shown),-0.542
16,O=C(Nc1ccncc1)c1cc(-c2ccc(Br)cc2)nc2ccccc12,2.43
17,Cc1cc(C)c2c3c(sc2n1)C1(CCN(C(=O)c2ccccc2)CC1)C(C#N)=C(N)O3,3.93
18,COc1ccc(CN2C(=O)c3oc4ccc(Cl)cc4c(=O)c3C2c2ccc(O)cc2)cc1 (stereo not shown),-5
19,CCCCCOC(=O)CSc1nnc(-c2ccccc2)o1,1.43
20,CCC[C@@H](NC(=O)[C@H](CC(C)C)c1cccc(-c2cccnc2)c1)C(=O)c1nc2ccccc2o1,6.03
21,CSc1nc2c(c(=O)[nH]c(=O)n2C)n1Cc1ccccc1,-1.44
22,Fc1ccc(OCCCN2CCOCC2)cc1,-2.12
23,Cc1nonc1NC(=O)C(C)C,-1.47
24,Cc1noc(C(=O)NC2CCCCC2)c1Cl,-3.45
25,O=C(NCc1ccc2c(c1)OCO2)c1cc2c(s1)CSC2,4.47

row,Compound,% Inhibition @ 10 uM [%]
1,CN(Cc1ccccc1)C(=O)C(=O)c1c[nH]c2ccccc12,5.31
2,CC(CNC(=O)c1ccc(CSc2nc3ccncc3[nH]2)cc1)c1ccccc1 (stereo not shown),-3.35
3,O=C(NC1CCCCCC1)c1ccc(CNc2c(NC3CCCCC3)c(=O)c2=O)cc1,-4.04
4,C=CCn1c(=O)c(C(=O)Nc2nc(C34CC5CC(CC(C5)C3)C4)cs2)c(O)c2ccccc21,3.9
5,FC(F)Oc1ccccc1C1CC(c2ccc(Br)cc2)Nc2ncnn21 (stereo not shown),-5.19
6,CN(C)CCNC(=O)c1ccc(CS(=O)Cc2ccc(Cl)cc2)o1 (stereo not shown),-8.63
7,COc1ccc(-c2cc3cc4c(C)coc4cc3oc2=O)cc1,-6.29
8,CS(=O)(=O)N(CC(=O)NC1CCCC1)c1ccc(Cl)c(C(F)(F)F)c1,0.643
9,CCOc1cc(-c2cc(N)n(S(=O)(=O)c3cccc4nsnc34)n2)cc(OCC)c1OCC,0.66
10,C=CCN(C)C1CC(=O)N(c2ccc(C)c(Cl)c2)C1=O (stereo not shown),-0.545
11,COc1ccc(NC(=O)CN(c2ccc(C)cc2)S(=O)(=O)c2ccc(F)cc2)cc1,9.33
12,Cc1ccc(-c2csc3nc(C)n(N)c(=O)c23)cc1,-4.31
13,Cn1c2c(c(=O)n(C)c1=O)C(c1cccs1)C1C(=O)c3ccccc3C1=N2 (stereo not shown),2.03
14,COc1ccc(C2C(C(=O)N3CCC4(CC3)OCCO4)c3ccccc3C(=O)N2C)cc1 (stereo not shown),-1.2
15,CN(C(=O)C1CCCN(S(=O)(=O)c2cccs2)C1)C1CCCCC1 (stereo not shown),4.15
16,COc1cccc(-c2nn(C)c3sc(C(=O)N4CCC5(CC4)OCCO5)cc23)c1,1.23
17,COc1ccc(/C=C2\SC(=N)N(c3ccc(OC)cc3)C2=O)cc1,22.3
18,O=C(c1nn2c(C(F)(F)F)cc(-c3ccccc3)nc2c1Br)N1CCOCC1,-2.94
19,C=CCc1cc(/C=C2/SC(=O)N(CC(=O)N3CCN(c4ccccc4)CC3)C2=O)cc(OC)c1O,-4.63
20,COc1cc(C(=O)N(Cc2ccco2)Cc2ccccc2Cl)cc(OC)c1OC,-5.91
21,COc1ccc(-c2cccc(C(CC(C)C)C(=O)NCC#N)c2)cc1[SH+](O)(O)N1CCN(CCO)CC1 (stereo not shown),1.7
22,COCCN1C(=O)/C(=C/c2ccc(OC)cc2)S/C1=N\c1ccccc1,-1.22

# From article PMC6919601, “Identification of Plasmodium dipeptidyl aminopeptidase allosteric inhibitors by high throughput screening” (PLoS ONE, 2019)
